# Test results taken from PubChem BioAssay AID1476 (National Center for Advancing Translational Sciences (NCATS), 2009).
# Where “and” joins values, the source holds several entries; their conditions need not be identical. Identical values can stand only once. Out of some 200,000 compounds screened, about 4,500 (2.2%) were called active. Inconclusive means that the source gave no clear call. Such entries were picked first, then a sample of the others. Calls come from the whole dose curve; as a rule, active = well fitted inhibition curve with a large enough effect; inconclusive = small, poorly fitted or top-dose-only effect, or effect the other way; inactive = flat fitted curve, though single readings scatter. Where the call is inconclusive, the potency comes from a doubtful curve fit.
# Target: Cruzipain (Trypanosoma cruzi) (UniProt P25779)
# Assay: qHTS Assay for Promiscuous and Specific Inhibitors of Cruzain (without detergent); note: nearly all actives have a fitted effect of over 40% in size;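 for max response, negative = inhibition: plate controls were enzyme without inhibitor for no effect and buffer without enzyme for full effect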
# Details: purified cruzain, Z-FR-AMC fluorescence, no detergent
# How it was run: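 Detergent-free condition (0.00005% Triton X-100) in acetate buffer pH 5.5 with DTT. 1.5 nM enzyme and compound were pre-mixed 15 min, then 2 uM Z-FR-AMC substrate added; reaction progress from fluorescence change between first and third reads (60 s).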
# Potency is the fitted concentration of half-maximal effect; tags give direction and shape of the fitted curve.
# UniProt P25779, sequence (P25779 whole entry, looked up): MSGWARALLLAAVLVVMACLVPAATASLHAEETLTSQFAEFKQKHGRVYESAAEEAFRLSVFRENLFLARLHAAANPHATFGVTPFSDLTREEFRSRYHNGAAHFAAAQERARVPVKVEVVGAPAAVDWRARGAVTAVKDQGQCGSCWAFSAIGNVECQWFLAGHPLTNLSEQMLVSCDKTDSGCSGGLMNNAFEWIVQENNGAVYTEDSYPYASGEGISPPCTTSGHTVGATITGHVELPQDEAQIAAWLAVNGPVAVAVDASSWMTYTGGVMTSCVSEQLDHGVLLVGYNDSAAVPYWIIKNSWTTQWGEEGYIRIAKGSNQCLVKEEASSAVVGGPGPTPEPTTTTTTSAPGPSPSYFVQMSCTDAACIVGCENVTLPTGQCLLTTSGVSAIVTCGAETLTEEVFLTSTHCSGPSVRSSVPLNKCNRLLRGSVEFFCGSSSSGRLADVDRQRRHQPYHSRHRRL
SMILES,Potency,"max response, negative = inhibition"
CC(C)c1c(O)nc(SCc2ccccc2)[nH]c1=O,"inconclusive: 31.6 µM [inhibitor, single point]",
C[C@@H](CN(C)C)CN1c2ccccc2CCc2ccccc21,,inactive: -5.57%
COCCCNC(=O)C1CC(=O)OC1c1ccc(OC)c(OC)c1 (stereo not drawn),,inactive: -5.23%
Cc1cccc(N2CCN(C(=O)CCNC(=O)Cn3ccc4ccccc4c3=O)CC2)c1C,"inconclusive: 31.6 µM [activator, single point]",
COc1ccc(/C=C2\SC(N3CCc4ccccc4C3)=NC2=O)cc1OC,"inconclusive: 39.8 µM [activator, single point]",
COc1ccc(NC(=O)N2CC[C@@]3(CCCN(C(=O)c4cnccn4)C3)C2)cc1,,inactive: 6.37%
Fc1ccc(Cn2nnnc2C(c2ccc(Cl)cc2)N2CC=C(c3ccc(F)cc3)CC2)cc1 (stereo not drawn),"inconclusive: 39.8 µM [inhibitor, single point]",
O=C(OCc1nc2ccc(Cl)cc2n1CCO)c1ccc(O)cc1,"inconclusive: 39.8 µM [inhibitor, single point]",
Cc1cccc(OCC(=O)Nc2c(C(=O)N3CCN(c4ccccc4)CC3)oc3ccccc23)c1,"inconclusive: 39.8 µM [activator, single point]",
COc1ccc(N2CCN(c3oc(-c4ccccc4C)nc3S(=O)(=O)c3ccccc3)CC2)cc1,active: 12.6 µM,
Cc1cc(C)n(-c2ccc(C(=O)OCn3nnc4ccccc4c3=O)cc2)n1,,inactive: 12.4%
COc1ccc2oc(-c3ccc(C)c(NC(=O)c4sc5ccccc5c4Cl)c3)nc2c1,,inactive: -7.77%
COc1ccc2c(Cc3c4ccccc4cc4ccccc34)cncc2c1O,,inactive: -18.2%
c1ccc(-c2cnnc(SCc3cn4cccnc4n3)n2)cc1,"inconclusive: 7.94 µM [inhibitor, partial curve]",
O=C(Oc1ccc(N(Cc2cccs2)C2=NS(=O)(=O)c3ccccc32)cc1)c1ccccc1Cl,active: 10 µM,
O=S(=O)(c1ccc(Cl)cc1)N1CCN(c2nc(-c3cccs3)nc3ccccc23)CC1,active: 10 µM,
COC(C(=O)Nc1ccc(S(=O)(=O)Nc2cccc3ccccc23)cc1)c1ccccc1 (stereo not drawn),"inconclusive: 31.6 µM [inhibitor, single point]",
Cc1cnc(CNc2ncncc2-c2cccnc2)cn1,,inactive: 8.99%
O=C(Nc1ccc(F)cc1F)c1cc2ccc3cccnc3c2[nH]1,active: 25.1 µM,
Cc1cc2c(c(=O)n1Cc1cccnc1)C(c1ccc(F)cc1)C(C#N)=C(N)O2 (stereo not drawn),,inactive: 1.67%
COc1ccccc1C(=O)N1CCCC(c2nc(-c3cc(OC)c(OC)c(OC)c3)no2)C1 (stereo not drawn),"inconclusive: 31.6 µM [activator, single point]",
CCOC(=O)N1CCC(Nc2c(NCCCN(C)Cc3ccccc3)c(=O)c2=O)CC1,,inactive: -8.45%
O=C(COC(=O)CCSc1ccccc1Cl)Nc1ccc(F)cc1F,active: 12.6 µM,

SMILES,Potency,"max response, negative = inhibition"
Cc1cccc(C(=O)Nc2ccc(C)c(OC(=O)c3cccc(C)c3)c2)c1,"inconclusive: 39.8 µM [inhibitor, single point]",
Cc1cc(C)c2nc(NC(=O)c3cccc(S(=O)(=O)N4CCc5ccccc54)c3)sc2c1,active: 3.98 µM,
CCNc1ccc2noc3c2c1C(=O)c1ccccc1-3,"inconclusive: 39.8 µM [activator, single point]",
Cc1ccc(-n2c(N)c(C(=O)N3CCCCC3)sc2=S)cc1,,inactive: 12.4%
CC(C)[C@H](NC(=O)OCc1ccccc1)C(=O)N[C@H](C=O)Cc1ccccc1,active: 0.0316 µM,
CCOc1ccc(S(=O)(=O)Nc2ccc3c(c2)c2c(n3S(=O)(=O)c3ccc(OCC)cc3)CCCC2=O)cc1,active: 7.94 µM,
O=C(Nc1ccc(Br)cc1)c1ccc(CSC2=NCCS2)cc1,"inconclusive: 39.8 µM [inhibitor, single point]",
COc1cc2c(cc1OC)C(COc1ccccc1OC)N(C(=O)c1ccc(S(=O)(=O)N3CCCC3)cc1)CC2 (stereo not drawn),"inconclusive: 39.8 µM [activator, single point]",
O=C(C1CCCCC1)N(Cc1cccnc1)c1nc2c(F)cccc2s1,,inactive: 6.48%
Cc1c(C(=O)N/N=C/c2ccc(O)cc2)sc(=S)n1C,"inconclusive: 39.8 µM [inhibitor, single point]",
CC(C)Oc1ccc(CNC(=O)c2ccc3c(c2)N(Cc2ccc(F)cc2)CCS3)cc1,,inactive: -18.5%
COc1ccc(Nc2nc(-c3ccccc3)c3cc(Br)ccc3n2)cc1,"inconclusive: 39.8 µM [inhibitor, single point]",
O=C(Cn1ncc2c3ccccc3n(Cc3ccc(F)cc3)c2c1=O)NC1CCCCCC1,"inconclusive: 39.8 µM [inhibitor, single point]",
CCC(C)Sc1nc2c(cnn2-c2ccc(C)cc2)c(=O)[nH]1 (stereo not drawn),active: 20 µM,
O=C(Nc1ccc(Br)cc1F)c1ccc2nc(CCc3ccccc3)oc2c1,,inactive: 10.4%
CN(C(=O)CSc1cn(CC(=O)N2CCCC2)c2ccccc12)c1ccccc1,"inconclusive: 31.6 µM [activator, single point]",
NNc1nc2c(Cl)ccc(Cl)c2s1,"inconclusive: 39.8 µM [inhibitor, single point]",
CCc1ccccc1NC(=O)Cn1c(C(=O)OC)cc2oc(C)cc21,,inactive: 2.01%
O=C(CN1CCN(S(=O)(=O)c2ccc3ccccc3c2)CC1)Nc1ccc2c(c1)CCC2,"inconclusive: 31.6 µM [inhibitor, single point]",
Cc1ccc2onc(CNC(=O)N(C)Cc3ccccc3)c2c1,,inactive: -2.99%
CCOc1cc(C(=S)N2CCCCC2)ccc1OS(=O)(=O)c1ccc(Br)cc1,"inconclusive: 31.6 µM [inhibitor, single point]",
Cc1cc(C)cc(NC(c2cccc(Cl)c2)c2nnc(-c3ccccc3)o2)c1 (stereo not drawn),"inconclusive: 31.6 µM [inhibitor, single point]",
COc1cccc(C(=O)COc2cccc(NC(=O)c3cccc([N+](=O)[O-])c3)c2)c1,"inconclusive: 31.6 µM [inhibitor, single point]",

SMILES,Potency,"max response, negative = inhibition"
Cc1ccccc1OCC(=O)NCC(c1ccc(Cl)cc1)N1CCOCC1 (stereo not drawn),"inconclusive: 31.6 µM [activator, single point]",
CCC(=O)Nc1cc(-c2nc3cc(C)cc(C)c3o2)ccc1C,"inconclusive: 3.98 µM [activator, single point]",
CCCCOc1ccc(S(=O)(=O)Nc2ccc(-c3ccc(N4CCCCC4)nn3)cc2)cc1,active: 31.6 µM,
Cc1c2cnn(-c3ccccc3)c(=O)c2c(C)n1CC(=O)N1CCN(c2cccc(Cl)c2)CC1,"inconclusive: 39.8 µM [activator, single point]",
COc1ccc(CNC(=O)c2cnn(-c3ccc(OC)cc3)c2C2CCN(C(=O)OC(C)(C)C)CC2)cc1,"inconclusive: 39.8 µM [activator, single point]",
O=C(c1ccccc1C(=O)N1CCN(c2ccccc2F)CC1)N1CCN(c2ccccc2F)CC1,"inconclusive: 31.6 µM [activator, single point]",
Cc1cc2c(C)cc(=O)oc2c2c1NCCC2,,inactive: -10.7%
COc1ccccc1/C=C(/CC(=O)NCc1ccccc1)c1nc2ccccc2s1,"inconclusive: 15.8 µM [inhibitor, single point]",
COCCCNC(=O)c1sc2nc(C)c(C(=O)Nc3ccc(Cl)cc3)c(-c3ccc(Br)cc3)c2c1N,"inconclusive: 5.01 µM [activator, full curve]",
CCCN(CCC)c1nc(NC2CCN(C(=O)OCC)CC2)nc(OC)n1,"inconclusive: 25.1 µM [activator, single point]",
O=C(N/N=C/c1cccc([N+](=O)[O-])c1)c1cc(-c2ccc3c4c(cccc24)CC3)n[nH]1,active: 7.94 µM,
COc1cccc(NC(=O)CSc2cc(C)[nH]c(=O)n2)c1,,inactive: 5.08%
CCC(C)Sc1nc2c(c(=O)[nH]c(=O)n2C)n1CC(O)COc1cccc2ccccc12 (stereo not drawn),"inconclusive: 20 µM [activator, partial curve]",
CCN(CC)c1nn2c(=O)c(C(=O)NCc3cccc(OC)c3OC)cnc2s1,,inactive: -9.03%
O=c1c2ccccc2[se]n1-c1ccccc1,,inactive: -7.27% and inactive: -6.9% and inactive: -25.3%
O=C(NCC1CCCCC1)C12CN(Cc3ccccc3)CC1C(c1cccc([N+](=O)[O-])c1)=NO2 (stereo not drawn),"inconclusive: 25.1 µM [inhibitor, single point]",
CC(=O)OC[C@H]1O[C@@H](O/N=C/[C@@H](C)[C@H](OCc2ccccc2)C(C)C)[C@H](OC(C)=O)[C@@H](OC(C)=O)[C@@H]1OC(C)=O,"inconclusive: 10 µM [activator, partial curve]",
COCCn1c(=N)c(C(=O)NCC2CCCO2)cc2c(=O)n3ccccc3nc21 (stereo not drawn),"inconclusive: 39.8 µM [inhibitor, single point]",
CCOc1ccc(CCNC(=O)CSc2nnnn2-c2ccccc2Cl)cc1OCC,"inconclusive: 31.6 µM [activator, single point]",
Cc1ccc(Cl)cc1N1CCN(S(=O)(=O)c2c(C)[nH]c(=O)[nH]c2=O)CC1,"inconclusive: 39.8 µM [inhibitor, single point]",
O=C(NC(=S)Nc1ccc(N2CCCCC2)cc1)c1ccc2c(c1)OCCO2,active: 25.1 µM,
COC(=O)c1cc(C(=O)OC)cc(N2C(=O)CC(N3CCN(c4ccccc4)CC3)C2=O)c1 (stereo not drawn),"inconclusive: 31.6 µM [activator, single point]",
